For two molecules, Kd results are on record in PMC6292214 (2018).

The target in this assay is CENP-A nucleosome (Homo sapiens, UniProt P49450).

B1: hCENP-N[…] (untagged) […] (protein)
chain: not shown
modifications: CENP-A in nucleosome with H4, H2A, H2B and DNA
One may read the Kd as the equilibrium constant for the complex coming apart. B1 showed a Kd of 46 nM.

B2: MBP-tagged hCENP-N[…] […] (protein)
chain: not shown
modifications: His8-MBP tag on CENP-N; CENP-A in nucleosome with H4, H2A, H2B and DNA
Molecule B2 had a Kd of 42 nM.
